{
  "source": "PubChem BioAssay AID1346428",
  "about": "(National Center for Advancing Translational Sciences (NCATS), 2018)",
  "note": "In all, about 48,000 compounds went through this assay and about 1,200 (2.5%) were called active. Inconclusive results (about 2%) are left out.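 Rule for the calls: active = activation of at least 60% and not above a set upper limit (about 1 call in 100 departs from these limits); inconclusive = activation of 40% to 60%, or above that upper limit; inactive = activation under 40%.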 Some of the results follow.",
  "data": [
    {"target": "Probable G-protein coupled receptor 32 (Homo sapiens) (UniProt O75388)", "sequence (O75388 whole entry, looked up)": "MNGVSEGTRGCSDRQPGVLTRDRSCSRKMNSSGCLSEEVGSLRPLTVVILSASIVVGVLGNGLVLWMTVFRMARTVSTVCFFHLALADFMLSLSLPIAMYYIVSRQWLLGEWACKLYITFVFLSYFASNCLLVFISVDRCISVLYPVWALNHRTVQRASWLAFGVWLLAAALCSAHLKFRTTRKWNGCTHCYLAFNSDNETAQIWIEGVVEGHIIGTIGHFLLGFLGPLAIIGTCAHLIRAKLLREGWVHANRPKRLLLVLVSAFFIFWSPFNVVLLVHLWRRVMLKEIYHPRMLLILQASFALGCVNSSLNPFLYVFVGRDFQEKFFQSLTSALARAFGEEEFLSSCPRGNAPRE", "assay": "qHTS for Agonists of Human Resolvin D1 Receptor DRV1; note: 0% is about no effect", "details": "CHO-K1 GPR32 beta-arrestin PathHunter luminescence, 90 min; at 76.9 µM; stronger effect = higher value; zero percent set by DMSO-only wells", "summary_of_the_method": "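Engineered CHO-K1 line co-expressing GPR32-ProLink and EA-beta-arrestin. Compound treatment lasted 90 min at 37 °C. Luminescence was recorded after 1 h with substrate at ambient temperature, relative to DMSO basal wells.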", "values": [
      {"smiles": "CCCNS(=O)(=O)c1cc(-c2nnc3c4ccccc4c(C)nn23)ccc1OC", "activation": "inactive: -29%"},
      {"smiles": "CCc1ccccc1N1C(=O)N(Cc2cccc(Cl)c2)c2ccccc2S1(=O)=O", "activation": "inactive: -7.24%"},
      {"smiles": "CC(=O)c1ccc(NC(=O)C2CCC(CNS(=O)(=O)c3cccc4nsnc34)CC2)cc1", "note": "(centres undefined)", "activation": "inactive: 21.3%"},
      {"smiles": "Cc1cccn2c(=O)c(C(=O)NCCc3ccc(Cl)cc3)cnc12", "activation": "inactive: -7.56%"},
      {"smiles": "NC(N)=NCc1cccc(I)c1", "activation": "inactive: 4.27%"},
      {"smiles": "Cc1ccc(C(=O)NCc2nnnn2-c2ccc(C)c(C)c2)cc1", "activation": "inactive: -8.2%"},
      {"smiles": "Cc1ccc(-c2nnc(Nc3ccc(Br)cc3)c3ccccc23)cc1S(=O)(=O)NCc1nc2ccccc2[nH]1", "activation": "inactive: -20.4%"},
      {"smiles": "COCCNc1cc(N2CCN(C3CCCCC3)CC2)c2noc3c2c1C(=O)c1ccccc1-3", "activation": "inactive: -11.9%"},
      {"smiles": "CCOc1ccccc1NC(=O)c1ccc2c(c1)CCCN2S(C)(=O)=O", "activation": "inactive: 4.04%"},
      {"smiles": "O=C(Nc1ccc2nn(-c3ccc(F)cc3)nc2c1)c1cccc2c(Cl)cccc12", "activation": "inactive: 28.8%"},
      {"smiles": "O=C(C1COc2ccccc2O1)N(Cc1cccnc1)c1nc2c(F)cc(F)cc2s1", "note": "(centres undefined)", "activation": "inactive: -4.62%"},
      {"smiles": "Cc1ccc(C(=O)Nc2nnc(SCc3cc(=O)c4c(C)ccc(C)c4[nH]3)s2)cc1", "activation": "active: 70.6%"},
      {"smiles": "Cc1ccc(Cl)cc1N1CCN(C(=O)c2c(C)oc3ncnc(N4CCOCC4)c23)CC1", "activation": "inactive: -5.07%"},
      {"smiles": "COc1cccc(C(=O)N2CCC(N3CCN(Cc4ccc(F)cc4)C(=O)C3=O)CC2)c1", "activation": "inactive: -6.7%"},
      {"smiles": "CCOc1ccccc1NC(=O)c1c(NCc2ccc(OC)c(OC)c2OC)sc2c1CCC(C)C2", "note": "(centres undefined)", "activation": "inactive: 20.9%"},
      {"smiles": "CCc1nnc(SCc2nc(-c3ccccc3F)oc2C)c2cc3sccc3n12", "activation": "inactive: -8.02%"},
      {"smiles": "Cc1cc(C)cc(OCC(=O)Nc2ccc(-c3nc4ncccc4o3)cc2C)c1", "activation": "inactive: -6.11%"},
      {"smiles": "COC(=O)c1cccc(Nc2c(-c3cc(Br)ccc3O)nc3nc[nH]n23)c1", "activation": "inactive: -44.5%"},
      {"smiles": "Cc1ccc(OCC(=O)Nc2cccc(C(=O)OCc3cc(=O)n4cc(C)sc4n3)c2)cc1", "activation": "inactive: -20.2%"},
      {"smiles": "Cc1cccc(-c2noc(-c3ccc(NC4CCCC4)c([N+](=O)[O-])c3)n2)c1", "activation": "inactive: 7.98%"},
      {"smiles": "COc1ccc(NC(=O)CSc2nnc(-c3nnn(-c4ccc(F)cc4)c3C)o2)cc1", "activation": "inactive: -1.65%"},
      {"smiles": "COc1cc(OC)c(NC(=O)c2nc(-c3ccncc3)no2)cc1Cl", "activation": "inactive: -13%"},
      {"smiles": "CCCCCNC(=O)C1CCC(Cn2c(=O)c3sccc3n(CC(=O)N3CCCC3)c2=O)CC1", "note": "(centres undefined)", "activation": "inactive: -4.74%"},
      {"smiles": "O=C(CC1N=C2c3ccccc3N=C(SCc3cccc(Cl)c3)N2C1=O)NC1CCCCC1", "note": "(centres undefined)", "activation": "inactive: -30.8%"},
      {"smiles": "CCOCN(C(=O)Cn1c(C)nc2ccccc21)c1c(C)cccc1CC", "activation": "inactive: -11.1%"},
      {"smiles": "Cn1c(=NC(=O)c2ccc(F)cc2)sc2cc(Br)ccc21", "activation": "inactive: -1.65%"},
      {"smiles": "Cc1cc2n(n1)CCCN2C(=O)Nc1ccccc1F", "activation": "inactive: -0.484%"},
      {"smiles": "Cc1ccc(Cl)cc1-n1c(=O)cc(N2CCN(c3ccccc3)CC2)[nH]c1=O", "activation": "inactive: -10.9%"},
      {"smiles": "CCc1ccc(NC(=O)c2ccc(F)c(S(=O)(=O)N(C)C3CCCCC3)c2)cc1", "activation": "inactive: -10.2%"},
      {"smiles": "CCc1ccc(NC(=O)CSc2nccn2-c2cccc(C)c2C)cc1", "activation": "inactive: -19.1%"},
      {"smiles": "O=c1cc(-c2ccc(F)cc2)nc(SCc2nc(-c3cccc(Cl)c3)no2)[nH]1", "activation": "inactive: -6.39%"},
      {"smiles": "Cc1cc(NC(=O)CSc2nc3c([nH]c4ccccc43)c(=O)n2-c2ccccc2)no1", "activation": "inactive: -46.3%"},
      {"smiles": "O=C(C1CCCN(S(=O)(=O)c2ccc(Br)s2)C1)N1CCN(c2ccc(F)cc2)CC1", "note": "(centres undefined)", "activation": "inactive: -18.3%"},
      {"smiles": "COc1ccc(NC(=O)CSc2nc3ccncc3[nH]2)c(OC)c1", "activation": "inactive: -2.49%"},
      {"smiles": "CC1CN(C(=O)N2CCC(C(=O)NCCC3=CCCCC3)CC2)c2cc(Cl)ccc2O1", "note": "(centres undefined)", "activation": "inactive: -2.03%"},
      {"smiles": "Cc1ccc(C2CC(=O)N(Cc3ccccc3)c3c2c(C)nn3-c2nc(C)cc(C)n2)cc1", "note": "(centres undefined)", "activation": "inactive: -7.18%"},
      {"smiles": "O=C(C1CCN(S(=O)(=O)Cc2ccccc2)CC1)N1CCN(c2ccc(F)cc2)CC1", "activation": "inactive: -10.6%"},
      {"smiles": "Cc1ccc2c(=O)cc(C(=O)Nc3sc4c(c3C(N)=O)CCCC4)oc2c1", "activation": "inactive: 12.6%"},
      {"smiles": "Cc1ccc(C)n1-c1c(C(=O)NCCCN2CCN(c3ccc(F)cc3)CC2)sc2ncccc12", "activation": "inactive: -13.7%"},
      {"smiles": "Cc1ccc(C)c(CN2C(=O)C3(c4ccccc42)N(c2cccc(C(F)(F)F)c2)C(=O)CS3(=O)=O)c1", "note": "(centres undefined)", "activation": "inactive: 11.7%"},
      {"smiles": "COc1ccc(C2C(=O)N(C3CCCCC3)CC(=O)N2CCc2ccc(OC)c(OC)c2)cc1", "note": "(centres undefined)", "activation": "inactive: -18.9%"},
      {"smiles": "COc1cc(NC(=O)c2nc3ccccc3nc2C)cc(OC)c1OC", "activation": "inactive: 7.08%"},
      {"smiles": "CCOC(=O)c1cc(C)n(CC2CCC(C(=O)Nc3ccc(OCC)cc3)CC2)c1C", "note": "(centres undefined)", "activation": "inactive: -17.5%"},
      {"smiles": "Cc1ccc2oc(-c3cc(NC(=O)c4ccc5c(c4)OCCO5)cc(C)c3O)nc2c1", "activation": "inactive: -3.24%"},
      {"smiles": "COc1ccc(NC(=O)CCn2nc(-c3ccccc3OC)c3c(C)cc(C)nc32)cc1", "activation": "inactive: -17.7%"},
      {"smiles": "CCC(C(=O)N1CCN(c2ccccc2F)CC1)n1nc(C)c2sc3ccccc3c2c1=O", "note": "(centres undefined)", "activation": "inactive: -13.8%"},
      {"smiles": "COc1cc(CN(C(=O)c2cccc(Cl)c2)c2ccccn2)cc(OC)c1OC", "activation": "inactive: 29%"},
      {"smiles": "Cc1ccc(-n2nc(C(=O)Nc3ccc(Cl)cn3)c3c4ccccc4n(C)c3c2=O)cc1", "activation": "inactive: 21.3%"},
      {"smiles": "CC1=C(C(=O)OCC(C)C)C(c2ccc(OCc3ccccc3)cc2)N2C(=O)CCSC2=N1", "note": "(centres undefined)", "activation": "inactive: -25.7%"},
      {"smiles": "Cc1ccc(Cl)cc1N1CCN(C(=O)c2cccn3c(=O)c4cc(Cl)ccc4nc23)CC1", "activation": "inactive: -7.33%"},
      {"smiles": "Cc1ccccc1OCc1ccc(-c2nc(C#N)c(N3CCN(C)CC3)o2)o1", "activation": "inactive: -20.9%"},
      {"smiles": "CCCCCCn1c(=O)c2c(ncn2C)n(C)c1=O", "activation": "inactive: 47.1%"},
      {"smiles": "Cc1cccc(NC(=O)c2sc3nc4c(cc3c2N)CN(Cc2ccccc2)CC4)c1", "activation": "inactive: -9.99%"},
      {"smiles": "COc1ccccc1NC(=O)c1oc2ccccc2c1NC(=O)c1ccccc1C(F)(F)F", "activation": "inactive: -10.8%"},
      {"smiles": "CCOc1ccccc1NC(=O)C(C)Sc1nc(-c2ccccc2)c(C#N)c(=O)[nH]1", "note": "(centres undefined)", "activation": "inactive: 0.722%"},
      {"smiles": "CCOc1ccc(/C=C/c2nc(C#N)c(NC(C)CC)o2)cc1", "note": "(centres undefined)", "activation": "inactive: -22.6%"},
      {"smiles": "CCc1cccc(NC(=O)c2cnc(SC)nc2-c2ccccc2)c1", "activation": "inactive: -3.17%"},
      {"smiles": "Cc1nc2sc(C(=O)Nc3ccc(F)cc3)c(N)c2c(-c2ccc(Br)cc2)c1C(=O)Nc1ccc(Cl)cc1", "activation": "inactive: 39.4%"},
      {"smiles": "O=C(Nc1ccc(NC(=O)c2cccs2)cc1)c1cccc(Br)c1", "activation": "inactive: -14.1%"},
      {"smiles": "Cc1ccc(C)c(Cn2c(=O)n(Cc3ccc4c(c3)OCO4)c(=O)c3oc4ccccc4c32)c1", "activation": "inactive: 4.8%"},
      {"smiles": "CCCCOc1ccc(C(=O)NCCc2sc(-c3cccc(F)c3)nc2C)cc1", "activation": "inactive: -12.9%"},
      {"smiles": "COC(=O)c1ccc(NC(=O)CC2C(=O)N(c3ccc(F)cc3)C(=O)N2Cc2ccc(OC)cc2)cc1", "note": "(centres undefined)", "activation": "inactive: -15.8%"},
      {"smiles": "Cc1cc2nc(-c3ccc(OCc4ccc(F)cc4)cc3)cc(C(F)(F)F)n2n1", "activation": "inactive: 22.9%"},
      {"smiles": "COc1ccc(N2CCN(S(=O)(=O)c3ccc(OC)c(-c4noc(C)n4)c3)CC2)cc1", "activation": "inactive: -18.7%"},
      {"smiles": "O=C(Cn1ncc2c3ccccc3n(Cc3ccc(Cl)cc3)c2c1=O)NCc1cccs1", "activation": "inactive: -5.93%"},
      {"smiles": "CCOc1ccc(Sc2cc(C(=O)NC(C)CC)c3ccccc3n2)cc1", "note": "(centres undefined)", "activation": "inactive: 3.62%"},
      {"smiles": "COCCCNC(=O)CSc1nc2ccccc2c(=O)n1Cc1ccco1", "activation": "inactive: -5.28%"},
      {"smiles": "Cc1ccc(NC(=O)CN2C(=O)COc3ccc(S(=O)(=O)N4CCCCCC4)cc32)cc1C", "activation": "inactive: -22%"},
      {"smiles": "CCOc1ccc(CCNC(=O)c2c(C)oc3ncnc(N4CCOCC4)c23)cc1", "activation": "inactive: 9.77%"},
      {"smiles": "COc1ccc(C(=O)Nc2ccc(OCc3cc(=O)n4ccccc4n3)cc2)cc1", "activation": "inactive: -0.434%"},
      {"smiles": "COc1ccc(CNC(=O)c2ccc3[nH]c(C)c(C)c3c2)c(OC)c1", "activation": "inactive: -3.61%"},
      {"smiles": "N#C/C(=C\\c1ccc(-c2ccc(F)cc2F)o1)c1nc2ccccc2[nH]1", "activation": "inactive: -6.96%"},
      {"smiles": "CCOc1cccc(CNc2ccc(O)cc2)c1OCc1ccccc1Cl", "activation": "inactive: -13.8%"},
      {"smiles": "CCc1nnc2c(NCCc3ccc(OC)c(OC)c3)nc3ccccc3n12", "activation": "inactive: 7%"},
      {"smiles": "CCN(CC)CCOC(=O)C(c1ccccc1)C1CCCCC1", "note": "(centres undefined)", "activation": "inactive: -5.75%"},
      {"smiles": "CN(C)c1cc2c(Nc3ccc4c(cnn4Cc4ccccc4)c3)ncnc2cn1", "activation": "inactive: 33.1%"},
      {"smiles": "Cc1ccc(C)c(N2CCN(C(=O)CCS(=O)(=O)c3ccc4c(c3)CC(=O)N4C)CC2)c1", "activation": "inactive: 0%"},
      {"smiles": "COc1ccc(-c2onc(C)c2C)cc1S(=O)(=O)NCc1ccc(Br)cc1", "activation": "inactive: -6.96%"},
      {"smiles": "CCc1ccc(NC(=O)CC2C(=O)N(c3ccc(Cl)cc3)C(=O)N2Cc2cccs2)cc1", "note": "(centres undefined)", "activation": "inactive: -14.8%"},
      {"smiles": "OC[C@H]1O[C@@H](n2cnc3c(=S)nc[nH]c32)[C@H](O)[C@@H]1O", "activation": "inactive: -86.9%"},
      {"smiles": "CCOc1ccc(NS(=O)(=O)c2ccc3c(c2)CCN3C(C)=O)cc1", "activation": "inactive: 3.01%"},
      {"smiles": "COc1ccc(-c2nnc(SCC(=O)Nc3ccc(C(C)=O)cc3)nc2-c2ccc(OC)cc2)cc1", "activation": "inactive: -22.5%"},
      {"smiles": "COc1cccc(C2CC(=O)Nc3c2c(=O)n(C)c2ncnn32)c1OC", "note": "(centres undefined)", "activation": "inactive: 9.19%"},
      {"smiles": "COc1ccc(OC)c(S(=O)(=O)Nc2cc3c(C(C)=O)c(C)oc3c3ccccc23)c1", "activation": "inactive: -1.37%"}
    ]}
  ]
}
